# Test results taken from article PMC9911399, “Two distinct binding modes provide the RNA-binding protein RbFox with extraordinary sequence specificity”.
# Positions count from the first letter of the chain named. The list shows a part of the results.
# T1: RBFOX1 RRM (Homo sapiens, UniProt Q9NWB1 109-208)
# T1 sequence: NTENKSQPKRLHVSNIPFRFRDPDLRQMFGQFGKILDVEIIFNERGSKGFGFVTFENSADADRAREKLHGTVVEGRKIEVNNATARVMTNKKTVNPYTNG
# B1: AUACUGU (DNA:RNA)
# RNA: GGGAGACCGGAAUUCAGAUUGUCCAUACUGUUUAAAUCCCGUCGUAGCCACCA
# DNA 1: CAATCTGAATTCCGGTCTCCC
# DNA 2: TGGTGGCTACGACGGGATT
# B2: GUGAUCC (DNA:RNA)
# RNA: B1 RNA with A25G, A27G, C28A, G30C, U31C
# DNA 1: CAATCTGAATTCCGGTCTCCC
# DNA 2: TGGTGGCTACGACGGGATT
# B3: UCGAACC (DNA:RNA)
# RNA: GGGAGACCGGAAUUCAGAUUGUCCUCGAACCUUAAAUCCCGUCGUAGCCACCA
# DNA 1: CAATCTGAATTCCGGTCTCCC
# DNA 2: TGGTGGCTACGACGGGATT
# B4: GUCAGCU (DNA:RNA)
# RNA: B1 RNA with A25G, A27C, C28A, U29G, G30C
# DNA 1: CAATCTGAATTCCGGTCTCCC
# DNA 2: TGGTGGCTACGACGGGATT
# B5: GACAGAU (DNA:RNA)
# RNA: B1 RNA with A25G, U26A, A27C, C28A, U29G, G30A
# DNA 1: CAATCTGAATTCCGGTCTCCC
# DNA 2: TGGTGGCTACGACGGGATT
# B6: UAAAUUG (DNA:RNA)
# RNA: B1 RNA with A25U, U26A, C28A, G30U, U31G
# DNA 1: CAATCTGAATTCCGGTCTCCC
# DNA 2: TGGTGGCTACGACGGGATT
# B7: UUGCCCG (DNA:RNA)
# RNA: B3 RNA with C26U, A28C, A29C, C31G
# DNA 1: CAATCTGAATTCCGGTCTCCC
# DNA 2: TGGTGGCTACGACGGGATT
# B8: AUAGCGA (DNA:RNA)
# RNA: B1 RNA with C28G, U29C, U31A
# DNA 1: CAATCTGAATTCCGGTCTCCC
# DNA 2: TGGTGGCTACGACGGGATT
# B9: CGACCAG (DNA:RNA)
# RNA: B1 RNA with A25C, U26G, U29C, G30A, U31G
# DNA 1: CAATCTGAATTCCGGTCTCCC
# DNA 2: TGGTGGCTACGACGGGATT
# B10: UAUGUGA (DNA:RNA)
# RNA: B1 RNA with A25U, U26A, A27U, C28G, U31A
# DNA 1: CAATCTGAATTCCGGTCTCCC
# DNA 2: TGGTGGCTACGACGGGATT
# B11: UUGCAUC (DNA:RNA)
# RNA: B3 RNA with C26U, A28C, C30U
# DNA 1: CAATCTGAATTCCGGTCTCCC
# DNA 2: TGGTGGCTACGACGGGATT
# B12: AAUCGCU (DNA:RNA)
# RNA: B1 RNA with U26A, A27U, U29G, G30C
# DNA 1: CAATCTGAATTCCGGTCTCCC
# DNA 2: TGGTGGCTACGACGGGATT
# B13: CACCAGG (DNA:RNA)
# RNA: B1 RNA with A25C, U26A, A27C, U29A, U31G
# DNA 1: CAATCTGAATTCCGGTCTCCC
# DNA 2: TGGTGGCTACGACGGGATT
# B14: GUGUUAA (DNA:RNA)
# RNA: B1 RNA with A25G, A27G, C28U, G30A, U31A
# DNA 1: CAATCTGAATTCCGGTCTCCC
# DNA 2: TGGTGGCTACGACGGGATT
# B15: GCACUAU (DNA:RNA)
# RNA: B1 RNA with A25G, U26C, G30A
# DNA 1: CAATCTGAATTCCGGTCTCCC
# DNA 2: TGGTGGCTACGACGGGATT
# B16: CUGAAUU (DNA:RNA)
# RNA: B3 RNA with U25C, C26U, C30U, C31U
# DNA 1: CAATCTGAATTCCGGTCTCCC
# DNA 2: TGGTGGCTACGACGGGATT
# B17: UUCAGCG (DNA:RNA)
# RNA: B3 RNA with C26U, G27C, A29G, C31G
# DNA 1: CAATCTGAATTCCGGTCTCCC
# DNA 2: TGGTGGCTACGACGGGATT
# B18: GAGGCAA (DNA:RNA)
# RNA: B3 RNA with U25G, C26A, A28G, A29C, C30A, C31A
# DNA 1: CAATCTGAATTCCGGTCTCCC
# DNA 2: TGGTGGCTACGACGGGATT
# B19: CUAGGAG (DNA:RNA)
# RNA: B1 RNA with A25C, C28G, U29G, G30A, U31G
# DNA 1: CAATCTGAATTCCGGTCTCCC
# DNA 2: TGGTGGCTACGACGGGATT
# B20: CUGUUGC (DNA:RNA)
# RNA: B1 RNA with A25C, A27G, C28U, U31C
# DNA 1: CAATCTGAATTCCGGTCTCCC
# DNA 2: TGGTGGCTACGACGGGATT
# B21: ACGCGGG (DNA:RNA)
# RNA: B1 RNA with U26C, A27G, U29G, U31G
# DNA 1: CAATCTGAATTCCGGTCTCCC
# DNA 2: TGGTGGCTACGACGGGATT
# B22: ACGAAUU (DNA:RNA)
# RNA: B3 RNA with U25A, C30U, C31U
# DNA 1: CAATCTGAATTCCGGTCTCCC
# DNA 2: TGGTGGCTACGACGGGATT
# B23: UUUUGAA (DNA:RNA)
# RNA: B1 RNA with A25U, A27U, C28U, U29G, G30A, U31A
# DNA 1: CAATCTGAATTCCGGTCTCCC
# DNA 2: TGGTGGCTACGACGGGATT
# B24: GCGGAUA (DNA:RNA)
# RNA: B3 RNA with U25G, A28G, C30U, C31A
# DNA 1: CAATCTGAATTCCGGTCTCCC
# DNA 2: TGGTGGCTACGACGGGATT
# B25: ACGGGUG (DNA:RNA)
# RNA: B3 RNA with U25A, A28G, A29G, C30U, C31G
# DNA 1: CAATCTGAATTCCGGTCTCCC
# DNA 2: TGGTGGCTACGACGGGATT
# B26: CCGCCAG (DNA:RNA)
# RNA: B3 RNA with U25C, A28C, A29C, C30A, C31G
# DNA 1: CAATCTGAATTCCGGTCTCCC
# DNA 2: TGGTGGCTACGACGGGATT
# B27: ACAGGCA (DNA:RNA)
# RNA: B1 RNA with U26C, C28G, U29G, G30C, U31A
# DNA 1: CAATCTGAATTCCGGTCTCCC
# DNA 2: TGGTGGCTACGACGGGATT
# B28: GUAAGAA (DNA:RNA)
# RNA: B1 RNA with A25G, C28A, U29G, G30A, U31A
# DNA 1: CAATCTGAATTCCGGTCTCCC
# DNA 2: TGGTGGCTACGACGGGATT
# B29: AGCAACG (DNA:RNA)
# RNA: B3 RNA with U25A, C26G, G27C, C31G
# DNA 1: CAATCTGAATTCCGGTCTCCC
# DNA 2: TGGTGGCTACGACGGGATT
# B30: CAUGGCU (DNA:RNA)
# RNA: B1 RNA with A25C, U26A, A27U, C28G, U29G, G30C
# DNA 1: CAATCTGAATTCCGGTCTCCC
# DNA 2: TGGTGGCTACGACGGGATT
# B31: CUUUAUC (DNA:RNA)
# RNA: B3 RNA with U25C, C26U, G27U, A28U, C30U
# DNA 1: CAATCTGAATTCCGGTCTCCC
# DNA 2: TGGTGGCTACGACGGGATT
# Target: T1, RBFOX1 RRM
# Assay: EMSA; HiTS-Eq, 1 nM pool, 10 min; buffer printed only for the single-RNA assays: 10 mM Tris pH 7.5, 150 mM NaCl, 3.4 mM EDTA, 0.001% NP-40, 30 C
# Conditions: tags: His6 N-terminal (pET28a); label: 5' 32P
# Outline: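 Purified RbFox RRM (wild type or mutant) was equilibrated for 10 min in 50 µL with 1 nM of a 5′-radiolabelled pool of RNA with 7 randomized nucleotides, its flanks annealed to DNA oligonucleotides, across increasing protein concentrations. Free RNA was separated by 8% native PAGE, excised, reverse-transcribed, PCR-barcoded and sequenced on an Illumina HiSeq 2500. Relative association constants came from read-count changes of each variant against the control reaction, normalised to the cognate motif.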
row,Binder,binding signal
1,B1,0.0026 KA relative to UGCAUGU
2,B2,0.0187 KA relative to UGCAUGU
3,B3,0.00388 KA relative to UGCAUGU
4,B4,0.0081 KA relative to UGCAUGU
5,B5,0.0102 KA relative to UGCAUGU
6,B6,0.0132 KA relative to UGCAUGU
7,B7,0.0225 KA relative to UGCAUGU
8,B8,0.00503 KA relative to UGCAUGU
9,B9,0.00738 KA relative to UGCAUGU
10,B10,0.0133 KA relative to UGCAUGU
11,B11,0.022 KA relative to UGCAUGU
12,B12,0.00687 KA relative to UGCAUGU
13,B13,0.00535 KA relative to UGCAUGU
14,B14,0.00646 KA relative to UGCAUGU
15,B15,0.00458 KA relative to UGCAUGU
16,B16,0.00817 KA relative to UGCAUGU

row,Binder,binding signal
1,B17,0.0121 KA relative to UGCAUGU
2,B18,0.0155 KA relative to UGCAUGU
3,B19,0.00338 KA relative to UGCAUGU
4,B20,0.0237 KA relative to UGCAUGU
5,B21,0.013 KA relative to UGCAUGU
6,B22,0.00219 KA relative to UGCAUGU
7,B23,0.0181 KA relative to UGCAUGU
8,B24,0.00825 KA relative to UGCAUGU
9,B25,0.0185 KA relative to UGCAUGU
10,B26,0.00933 KA relative to UGCAUGU
11,B27,0.0123 KA relative to UGCAUGU
12,B28,0.0107 KA relative to UGCAUGU
13,B29,0.00887 KA relative to UGCAUGU
14,B30,0.0135 KA relative to UGCAUGU
15,B31,0.00336 KA relative to UGCAUGU
